Source: PMC4336329 (PLoS ONE, 2015)
Hit rate of the full screen: of about 310,000 compounds, about 2,200 (0.71%) showed an effect of 50% or more. Effects have a minus sign here. The list shows a part of the results.

Each compound was assayed against human ether-à-go-go-related gene (hERG) potassium channel (human, UniProt Q12809) (assay: primary screen, population patch clamp on CHO cells stably expressing hERG).
Sequence of human ether-à-go-go-related gene (hERG) potassium channel (Q12809 whole entry, looked up): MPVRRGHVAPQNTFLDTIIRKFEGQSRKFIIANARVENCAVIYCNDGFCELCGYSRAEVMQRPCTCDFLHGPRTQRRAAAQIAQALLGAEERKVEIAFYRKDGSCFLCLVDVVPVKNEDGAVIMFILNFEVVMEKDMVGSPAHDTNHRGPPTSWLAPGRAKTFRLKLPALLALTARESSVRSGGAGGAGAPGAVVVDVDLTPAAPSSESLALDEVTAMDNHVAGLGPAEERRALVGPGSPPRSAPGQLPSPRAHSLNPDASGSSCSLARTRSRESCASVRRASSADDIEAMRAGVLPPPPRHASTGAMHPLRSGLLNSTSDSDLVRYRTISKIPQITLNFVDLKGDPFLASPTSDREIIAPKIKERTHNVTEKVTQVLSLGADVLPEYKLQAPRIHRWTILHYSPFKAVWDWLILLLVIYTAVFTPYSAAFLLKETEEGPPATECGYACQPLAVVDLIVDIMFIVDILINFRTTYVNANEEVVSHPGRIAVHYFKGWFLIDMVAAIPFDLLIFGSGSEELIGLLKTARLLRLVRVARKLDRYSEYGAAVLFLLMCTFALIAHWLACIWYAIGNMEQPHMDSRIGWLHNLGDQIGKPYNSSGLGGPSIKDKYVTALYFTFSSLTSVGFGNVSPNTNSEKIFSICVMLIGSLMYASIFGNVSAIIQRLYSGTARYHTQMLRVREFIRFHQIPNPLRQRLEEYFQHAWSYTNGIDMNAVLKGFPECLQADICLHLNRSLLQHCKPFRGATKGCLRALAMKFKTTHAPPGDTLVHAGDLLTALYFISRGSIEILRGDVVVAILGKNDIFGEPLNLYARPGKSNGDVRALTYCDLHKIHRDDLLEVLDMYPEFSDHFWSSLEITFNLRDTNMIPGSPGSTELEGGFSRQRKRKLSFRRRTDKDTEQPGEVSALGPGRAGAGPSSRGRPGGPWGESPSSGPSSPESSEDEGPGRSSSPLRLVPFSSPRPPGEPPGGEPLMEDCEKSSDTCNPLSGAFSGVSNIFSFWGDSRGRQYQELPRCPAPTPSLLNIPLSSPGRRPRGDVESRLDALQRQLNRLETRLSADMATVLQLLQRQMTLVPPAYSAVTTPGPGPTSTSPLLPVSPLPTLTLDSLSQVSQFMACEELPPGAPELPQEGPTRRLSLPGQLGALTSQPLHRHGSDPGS

SMILES	hERG current change (%, negative = inhibition) at 1uM
CC(Nc1ccc(Cl)cc1)c1cc(Cl)ccc1O (stereo not shown)	3.82%
O=C(Nc1ccccc1)OC1C2CCC1C(N1CCCCC1)CC2 (stereo not shown)	-12.2%
CCNC(=S)Nc1cc(Cl)ccc1Oc1ccccc1	8.1%
Cc1cc(C)c(-c2cc(NC(=O)CSc3n[nH]c(N)n3)n(-c3ccccc3)n2)cc1C	15%
COc1ccccc1/C=N/NC(=O)C(=O)Nc1ccccc1OC(F)(F)C(F)F	5.98%
CC(=O)c1ccc(NC(=O)C2CCCC2)cc1	13%
Cl.O=C(O)c1ccc(CNCc2ccccc2Cl)cc1	-13.8%
O=c1c(Cl)c2oc3ccccc3nc-2c2ccccc12	17.5%
COc1ccccc1NC(=S)NC(=O)/C=C/c1ccco1	17.6%
Cc1cc(Nc2ccc(F)cc2F)n2nc(C)nc2n1	9.5%
Cc1ccc(C(=O)OC(C)C(=O)Nc2ccc3c(c2)OCO3)c(O)c1 (stereo not shown)	1.38%
C=CCn1c(SCC(=O)Nc2ccc(S(N)(=O)=O)cc2)nnc1-c1cnccn1	14.3%
CC1(C)SC2C(NC(=O)COc3ccccc3)C(=O)N2C1C(=O)O (stereo not shown)	-0.761%
COCCOC(=O)C(CC(=O)O)NCc1ccco1 (stereo not shown)	11%
COc1ccc(NC(=O)C2CCCNC2=O)cc1 (stereo not shown)	11.7%
COc1cc2c(cc1NC(=O)COC(=O)c1ccccc1)oc1ccccc12	8.9%
Cn1cccc1C1Nc2ccccc2NC2=C1C(=O)CC(C)(C)C2 (stereo not shown)	14.7%
O=C(c1ccccc1)c1cc2ccc(O)cc2oc1=O	6.56%
CSCc1cc(N(C)c2ccccc2)nc(-c2ccccc2)n1	12.8%
Cc1cc(OCC(=O)NCc2ccncc2)c2c(C)cc(=O)oc2c1	13.7%

SMILES	hERG current change (%, negative = inhibition) at 1uM
CN1CCN(NC(=O)c2ccc(Cl)cc2Cl)CC1	6.25%
COc1ccc(CCN2CC(C(=O)O)CC2=O)cc1OC (stereo not shown)	2.95%
O=C(COC(=O)CCc1c[nH]c(=O)[nH]1)Nc1ccccc1	12.3%
COc1ccccc1N1CCN(/N=C/C=C\c2ccccc2[N+](=O)[O-])CC1	4.77%
COC(=O)c1c(C(=O)OC)c(-c2ccc(Cl)cc2)n2c1CS(=O)(=O)C2	8.05%
Cc1ccc(NC(=O)CSc2nc3ccccc3c(=O)n2CCCC(=O)NCCCN2CCOCC2)cc1	-1.63%
CCOC(=O)C1=C(c2ccccc2)N=c2s/c(=C\c3cccc(O)c3)c(=O)n2C1c1cccs1 (stereo not shown)	14.9%
CCCCn1c(SCc2ncc(-c3ccccc3)o2)nc2cc(S(N)(=O)=O)ccc21	10.2%
CCOc1ccc(OCC)c(NC(=O)CSCC(=O)O)c1	-1.77%
CCOc1ccccc1N/C=C(\C#N)c1nc2ccccc2n1C	2%
CCOc1ccc(CCNC(=O)Cn2nc(C)c3c(C)n(-c4ccccc4)nc3c2=O)cc1	9.73%
CN1CCN(c2nnc(-c3ccc(Cl)cc3)c3ccccc23)CC1	-3.34%
O=C(N/N=C/c1c[nH]c2ccccc12)c1cccs1	11.8%
Cc1ccc(CNC(=O)Nc2ccccc2)cc1	15.4%
O=C(c1ccc(COc2ccccc2Cl)o1)N1N=C(C(F)F)CC1(O)C(F)F (stereo not shown)	12.6%
COc1cc2c(cc1OC)C(C)N(C(=O)c1cccc([N+](=O)[O-])c1)CC2 (stereo not shown)	6.91%
Cc1cc(N/C=C/C(=O)c2cccs2)ccc1F	25.5%
CCC(=O)Nc1cc(C)c(NC(=O)CCc2ccccc2)cn1	7.24%
CN(C)S(=O)(=O)c1ccc2c(c1)C(=O)c1cc(S(=O)(=O)N(C)C)ccc1CC2	16.2%
Cn1cc(C(=O)NCC2COc3ccccc3O2)c(=O)c2cc(S(=O)(=O)N3CCCCC3)ccc21 (stereo not shown)	16.2%

SMILES	hERG current change (%, negative = inhibition) at 1uM
O=C(O)c1ccc(S(=O)(=O)NC2CCCCCC2)cc1	13.5%
COc1cc(NC(=O)COc2ccccc2)ccc1NC(=O)c1ccco1	-9.14%
COc1ccc(Cl)cc1-c1nc(-c2ccc(NC(=O)c3ccncc3)cc2)no1	8.77%
Cc1cccc(N(C(=O)c2csnn2)C(C(=O)NCc2ccccc2)c2cccs2)c1 (stereo not shown)	1.76%
COc1ccc(C(=O)Oc2c(CN3CCOCC3)cc(Cl)c3cccnc23)cc1OC	8.7%
O=C(OC(C(=O)NC1CCCC1)c1ccc(F)cc1)c1ccno1 (stereo not shown)	3.34%
COCCCNC(=S)N1CCN(c2nc(-c3ccccc3)cs2)CC1	10.9%
CC1(C)CC(=O)C(CC(=O)N2CCC(Cc3ccccc3)CC2)C(=O)C1	23.4%
COCCCn1c2nc3ccccc3nc2c2c(=O)n(Cc3ccc(Cl)cc3)cnc21	5.24%
CC(=O)c1cccc(NC(=O)NC2CCCc3ccccc32)c1 (stereo not shown)	8.03%
Cc1ccsc1CN(C)C(=O)C1CCC(=O)N(CCc2cccc(F)c2)C1 (stereo not shown)	-3.49%
c1cc2c3c(cccc3c1)NC(c1ccc3c(c1)OCO3)N2	12.7%
N#CCCn1c(SCC(=O)N2CCN(S(=O)(=O)c3ccccc3)CC2)nc2ccccc21	5.5%
COc1ccc(-n2c(Cc3cccn3C)nnc2SCC(N)=O)cc1	6.69%
Cc1ccc(NCc2nnc(SCC(=O)O)n2-c2ccc(C)cc2)cc1	11.9%
CCc1ccc(CN2CCN(S(=O)(=O)Cc3ccccc3)CC2)cc1.O=C(O)C(=O)O	10.2%
CC(C)(C)C1CCCCC1NC(=O)c1ccncc1 (stereo not shown)	12.8%
CCOC(=O)N1CCN(C(=O)CSc2cc(C)nc3c(-c4ccccc4OC)c(C)nn23)CC1	12.9%
